The densities may have been worked out from excess volumes.
Assay: xn = mol fraction of the nth substance listed
Settings: 101.3 kPa

CC1COC(=O)O1 (stereo not given) + FC(S(=O)(=O)[N-]S(=O)(=O)C(F)(F)F)(F)F.C(CCC)N1C(=[N+](C=C1)C)C
x2 = 0
Settings | mass density [kg/m3]
298.15 K | 1198.8
303.15 K | 1193.5
308.15 K | 1188.2
313.15 K | 1182.9
318.15 K | 1177.6
323.15 K | 1172.3
328.15 K | 1166.9
333.15 K | 1161.6
338.15 K | 1156.3
348.15 K | 1145.7

CC[n+]1ccn(C)c1C.O=S(=O)([N-]S(=O)(=O)C(F)(F)F)C(F)(F)F + CC1COC(=O)O1
mass density [kg/m3]
Settings | x1 = 0.1001 | x1 = 0.2007 | x1 = 0.3096 | x1 = 0.3983 | x1 = 0.5126 | x1 = 0.5825 | x1 = 0.7004 | x1 = 0.8032 | x1 = 0.8903 | x1 = 1
293.15 K | 1279.8 | 1333 | 1375 | – | – | 1442.1 | 1461.3 | 1475.2 | 1485.4 | 1496.4
298.15 K | 1274.5 | 1327.9 | – | 1396.3 | 1423.3 | 1437.1 | 1456.3 | 1470.3 | 1480.5 | 1491.5
303.15 K | 1269.3 | 1322.7 | 1364.8 | 1391.2 | 1418.3 | – | 1451.4 | 1465.4 | 1475.6 | 1486.7
308.15 K | 1264.1 | 1317.5 | 1359.7 | 1386.2 | – | 1427.2 | 1446.5 | 1460.5 | 1470.8 | 1481.9
313.15 K | 1258.9 | 1312.4 | 1354.7 | – | 1408.4 | 1422.3 | – | 1455.7 | 1465.9 | 1477
318.15 K | 1253.7 | 1307.3 | 1349.6 | 1376.2 | 1403.5 | 1417.3 | 1436.7 | – | 1461.1 | 1472.3
323.15 K | 1248.5 | – | 1344.6 | 1371.2 | 1398.5 | 1412.4 | – | 1446 | 1456.3 | 1467.5
328.15 K | 1243.3 | 1297.1 | – | 1366.2 | 1393.6 | 1407.5 | 1427 | – | 1451.5 | 1462.7
333.15 K | – | 1292 | 1334.5 | 1361.2 | 1388.7 | 1402.7 | 1422.2 | 1436.4 | 1446.7 | 1458
338.15 K | 1232.9 | 1286.9 | – | 1356.3 | – | 1397.8 | 1417.4 | 1431.6 | 1441.9 | 1453.2
343.15 K | – | 1281.8 | 1324.5 | 1351.3 | – | – | 1412.6 | 1426.8 | – | 1448.5
348.15 K | – | – | – | 1346.4 | – | 1388.1 | – | 1422.1 | 1432.4 | 1443.8

CC[n+]1ccn(C)c1.O=S(=O)([N-]S(=O)(=O)C(F)(F)F)C(F)(F)F + CC1COC(=O)O1
mass density [kg/m3]
Settings | x1 = 0.1 | x1 = 0.2127 | x1 = 0.3007 | x1 = 0.4227 | x1 = 0.5146 | x1 = 0.6015 | x1 = 0.7004 | x1 = 0.8098 | x1 = 0.8868 | x1 = 1
288.15 K | 1290.6 | 1354.2 | 1391.4 | 1430.9 | 1454.3 | 1472.6 | 1490.3 | 1506.5 | 1516.5 | 1529.2
293.15 K | 1285.2 | 1349 | – | 1425.7 | 1449 | 1467.4 | 1485.2 | 1501.4 | 1511.4 | –
298.15 K | 1279.9 | – | 1380.8 | 1420.5 | 1443.8 | 1462.2 | – | 1496.3 | 1506.3 | 1519
303.15 K | – | 1338.4 | 1375.6 | – | 1438.7 | 1457.1 | 1474.9 | 1491.2 | 1501.2 | 1513.9
308.15 K | 1269.4 | 1333.2 | 1370.4 | – | 1433.5 | – | 1469.8 | 1486.1 | 1496.1 | –
313.15 K | 1264.1 | 1327.9 | 1365.2 | 1404.9 | 1428.4 | 1446.8 | 1464.7 | – | 1491.1 | –
318.15 K | 1258.8 | 1322.7 | – | 1399.8 | 1423.2 | – | – | 1476 | 1486 | 1498.9
323.15 K | 1253.6 | 1317.5 | 1354.8 | 1394.6 | 1418.1 | – | 1454.5 | 1471 | 1481 | 1493.9
328.15 K | 1248.4 | – | 1349.6 | – | – | 1431.6 | 1449.5 | 1465.9 | 1476 | 1488.9
333.15 K | – | 1307.1 | – | 1384.4 | 1408 | 1426.5 | – | 1460.9 | 1471 | 1484
338.15 K | – | 1302 | 1339.4 | 1379.3 | 1402.9 | 1421.5 | 1439.5 | 1456 | 1466.1 | 1479
343.15 K | 1232.7 | 1296.8 | 1334.2 | 1374.2 | – | 1416.5 | 1434.5 | – | 1461.2 | 1474.1
348.15 K | – | – | 1329.1 | 1369.1 | 1392.8 | 1411.4 | 1429.5 | 1446.1 | 1456.2 | 1469.2

CC1COC(=O)O1 (stereo not given) + CC[n+]1ccn(C)c1.O=S(=O)([N-]S(=O)(=O)C(F)(F)F)C(F)(F)F
x2 = 0
Settings | mass density [kg/m3]
288.15 K | 1209.4
293.15 K | 1204.1
298.15 K | 1198.8
308.15 K | 1188.2
313.15 K | 1182.9
323.15 K | 1172.3
328.15 K | 1166.9
333.15 K | 1161.6
343.15 K | 1151
348.15 K | 1145.7

CC1COC(=O)O1 (stereo not given) + CC[n+]1ccn(C)c1C.O=S(=O)([N-]S(=O)(=O)C(F)(F)F)C(F)(F)F
x2 = 0
Settings | mass density [kg/m3]
293.15 K | 1204.1
298.15 K | 1198.8
303.15 K | 1193.5
313.15 K | 1182.9
318.15 K | 1177.6
323.15 K | 1172.3
328.15 K | 1166.9
333.15 K | 1161.6
338.15 K | 1156.3
343.15 K | 1151

From a compilation of properties of binary mixtures (doi:10.1016/j.molliq.2020.114573)
